Measurements as given in the supplement of paper PMC9334596.
Several values for one entry are separate records, joined by “and”; a condition that tells them apart may be missing. Equal entries are not always repeated. Over roughly 5,300 compounds, “PER2::LUC luminescence relative to vehicle control” has its median near 0.96; the highest 2% begin near 1.3. The list shows a part of the results.

Tested on: mPer2Luc MEF
Assay: PER2::LUC luminescence relative to vehicle control (fold of vehicle); higher = higher PER2::LUC reporter signal
Details: 10 µM
Method in brief: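 Compounds from commercial libraries were added at 10 μM to 384-well plates seeded 48 h earlier with ~3000 mPer2Luc mouse embryonic fibroblasts per well. The cells were kept in DMEM with 10% FBS at 37 °C and 5% CO2. Luminescence was read with ONE-Glo 24 h and 30 h after treatment, then an alamarBlue viability assay was run. Values are PER2::LUC luminescence relative to vehicle control, as fold change.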

SMILES | PER2::LUC luminescence (time after treatment 24 h) | PER2::LUC luminescence (time after treatment 30 h)
CN(C)CCCN1c2ccccc2Sc2ccc(Cl)cc21 | 0.802 and 0.69 | 0.848 and 0.664
CCOC(=O)c1c(C)cc(O)cc1O | 1.01 | 1.04
CCCC1(C)C(C#N)(C#N)C1(C#N)C#N | 1.15 | 1.04
COc1ccccc1N1CCN(CCCCN2C(=O)CCC2=O)CC1 | 0.982 | 0.886
CC(C)Cn1c(=O)n(C)c(=O)c2[nH]cnc21 | 1 and 0.886 | 0.925 and 0.848
CCCCOc1cc(CC2CNC(=O)N2)ccc1OC (stereo unspecified) | 0.947 and 0.699 | 0.899 and 0.995
OC[C@H]1O[C@@H](n2cnc3c(N[C@H]4CCC[C@@H]4O)ncnc32)[C@@H](O)C1O (stereo partly specified) | 1.25 | 0.88
O=C1NC(=O)/C(=C/c2ccc3c(c2)OC(F)(F)O3)S1 | 1.31 and 1.12 | 1.42 and 1.06
CC1(C)C2CCC1(C(=O)O)C(=O)C2 (stereo unspecified) | 0.998 | 0.954
CCOc1ccccc1OC(c1ccccc1)C1CNCCO1 (stereo unspecified) | 0.967 | 0.954
N[C@@H](CCS(=O)O)C(=O)O | 0.964 | 0.944
COc1cc([C@@H]2c3cc4c(cc3[C@@H](O[C@@H]3O[C@@H]5CO[C@@H](c6cccs6)O[C@H]5[C@H](O)[C@H]3O)[C@H]3COC(=O)[C@H]23)OCO4)cc(OC)c1O | 0.578 | 0.334
Cc1cc(N2CCN([C@@H]3CN[C@H](C(=O)N4CCSC4)C3)CC2)n(-c2ccccc2)n1 | 1.11 | 1.11
Cc1cccn2c(=O)c(C=C(C#N)c3nc4ccccc4s3)c(Oc3ccc(F)cc3)nc12 | 0.941 | 0.942
OCc1ccccn1 | 1.03 and 0.984 | 0.993 and 1.19
COC1=CC(=O)C=C(OC)C1=O | 1.33 | 0.867
COc1cc(OC)c2c(=O)c(-c3ccccc3)c(C)oc2c1OC | 0.976 | 0.922
COc1ccc(CN2CCN(C(c3ccc(F)cc3)c3ccc(F)cc3)CC2)c(OC)c1OC | 0.965 and 0.899 | 0.936 and 0.941
CC(C)(C)NC[C@H](O)COc1ccccc1C1CCCC1 | 0.724 | 0.775
COc1ccc2c(c1)C(C(=O)N(Cc1ccc(N(C)C)cc1)c1ccc(C(C)C)cc1)CCC2 (stereo unspecified) | 1.16 | 0.993

SMILES | PER2::LUC luminescence (time after treatment 24 h) | PER2::LUC luminescence (time after treatment 30 h)
COc1ccc(C(=O)c2ccccc2O)c(O)c1 | 1.02 | 1.04
CCN1CCN(Cc2ccc(Nc3ncc(F)c(-c4cc(F)c5nc(C)n(C(C)C)c5c4)n3)nc2)CC1 | 0.322 | 0.409
COCCc1ccc(OCC(O)CNC(C)C)cc1 (stereo unspecified) | 0.933 and 0.85 | 0.982 and 0.89
Nc1nc2[nH]cc(CCc3ccc(C(=O)N[C@@H](CCC(=O)O)C(=O)O)cc3)c2c(=O)[nH]1 | 0.901 and 0.788 | 0.682 and 0.646
O=C(OCCOCCO)c1ccccc1Nc1cccc(C(F)(F)F)c1 | 0.989 | 0.97
CC1=C(C/C=C(\C)CCC[C@H](C)CCC[C@H](C)CCCC(C)C)C(=O)c2ccccc2C1=O | 1.08 and 0.883 | 0.944 and 1.08
Fc1ccc2c(CCNCc3cccc(OCC(F)(F)C(F)F)c3)c[nH]c2c1 | 0.89 | 0.843
O=C(O)[C@H]1/C(=C/CO)O[C@@H]2CC(=O)N21 | 1.21 | 1.1
Cc1ncc(COP(=O)([O-])[O-])c(CN(CCN(CC(=O)O)Cc2c(COP(=O)([O-])O)cnc(C)c2O)CC(=O)O)c1O.[Mn].[Na+].[Na+].[Na+] | 0.995 | 0.957
O=C(O)c1cc(I)ccc1NC(=O)[C@H](Cc1ccccc1)NCc1ccccc1 | 1.1 | 1.12
CC(=O)CC(=O)Nc1ccc(Cl)c(C(F)(F)F)c1 | 1.35 | 1.37
CC1CCCC(C)N1 (stereo unspecified) | 1.03 | 1.18
O=c1c(O)c(-c2ccc(O)c(O)c2)oc2cc(O)cc(O)c12 | 0.939 and 0.842 | 0.934 and 1
CC(=O)Nc1cccc(O)c1 | 0.872 | 0.861
Cc1cnc(C(=O)O)c[n+]1[O-] | 1.01 | 1.19
COc1ccc(C2=N[C@H](c3ccc(Cl)cc3)[C@H](c3ccc(Cl)cc3)N2C(=O)N2CCNC(=O)C2)c(OC(C)C)c1 | 0.999 | 1.02
O=C(Nc1ccc([N+](=O)[O-])cc1O)Nc1ccccc1Br | 1.07 | 1.04
O=C(c1cncc(Br)c1)N1CCC(N2CCCC2)CC1 | 0.96 | 0.96
C[N+](C)(C)CCOP(=O)([O-])OC[C@H](O)CO | 1.09 | 1
COC(=O)C(N)Cc1ccc(Cl)cc1 (racemic) | 1.04 | 1.04

SMILES | PER2::LUC luminescence (time after treatment 24 h) | PER2::LUC luminescence (time after treatment 30 h)
NC(C(=O)O)c1cccc(O)c1 (racemic) | 1.02 | 1.03
O=C(O)C1(C(=O)O)CCC1.[NH2-].[NH2-].[Pt+2] | 1.09 | 0.881
CCN(CCCOc1ccc2c(Nc3cc(CC(=O)Nc4cccc(F)c4)[nH]n3)ncnc2c1)CCOP(=O)(O)O | 1 | 0.944
Cc1ccccc1N=Nc1ccc(NC(=O)c2ccnn2C)c(C)c1 | 0.845 | 0.897
Nc1ccc(NC(=O)c2ccc(C(F)(F)F)cc2)nc1 | 1.01 | 0.976
CN[C@@H]1[C@H](O[C@H]2[C@H](O[C@H]3[C@H](O)[C@@H](O)[C@H](NC(=N)N)[C@@H](O)[C@@H]3NC(=N)N)O[C@@H](C)[C@]2(O)CO)O[C@@H](CO)[C@H](O)[C@H]1O | 0.917 | 0.993
NCc1ccc(S(N)(=O)=O)cc1 | 0.99 and 1.15 | 1.07
CCc1oc2ccccc2c1C(=O)c1cc(Br)c(O)c(Br)c1 | 1.02 and 0.985 | 0.988 and 0.754
CC/C(=C(\c1ccccc1)c1ccc(OCCN(C)C)cc1)c1ccccc1 | 0.718 and 0.679 | 0.784 and 0.742
COc1cc2oc3cc(OC)c(OC)c(CC=C(C)C)c3c(=O)c2c(OC)c1CC=C(C)C | 1.01 | 1.02
Cn1cc(-c2ccc(S(=O)(=O)n3ccc(/C=C/C(=O)Nc4ccccc4N)c3)cc2)cn1 | 0.219 | 0.258
COc1cc(OC)c(-c2c(OC)cc(OC)cc2OC)c(OC)c1 | 0.943 | 0.891
CN(C)CCCCC(=O)Nc1ccc(NC(=S)NC(=O)c2ccc(C(C)(C)C)cc2)cc1 | 0.18 and 0.147 | 0.186 and 0.127
C#C[C@]1(O)CC[C@H]2[C@@H]3CCC4=C(CCC(=O)C4)[C@H]3CC[C@@]21C | 0.992 | 1.08
NC(=O)[C@@H]1CC[C@H](c2ccc(OCc3ccccc3F)cc2)N1 | 0.937 | 1.12
CCOC(=O)[N-]c1c[n+](N2CCOCC2)no1 | 1.09 | 1.74
CC[N+](CC)(CC)CCOc1cccc(OCC[N+](CC)(CC)CC)c1OCC[N+](CC)(CC)CC | 0.563 | 0.842
COc1cc2ncnc(Nc3ccccc3)c2cc1OC | 0.797 | 0.652
